# Measurements as given in the supplement of paper PMC8728848.
# This is one part of the list.
# B1: SP16664B-bot-474-25-474 (Bacteroides ovatus) (protein)
# chain: CEEDIEIGNKIDESSYLASTQLSGLLLDENTNKNSSVIELRNNEYSTNVVFRLSKLPQKGVDVQIAVEESYAAIYNTIHETDFEVFPAANVKIANNGTFVLAPDDKVTPSVKVTLTAFDGMEEDKTYIVPLTVTSSTEGVTFTETSKHMVLLVQDYRNKPNTNKGEDAVQTVLYFEVNDTNPLNALEFLTESGKYFFDHIVLFAANINWDPEKQRVYLANNENVQFLLDNNDKYLQPLRKAGMKIIISILGNHDEAGVAQLSDMGAREFARELAAYCRAYNLDGVAFDDEYSNSPDLSNPWLASPSAYAGSRLMYECKAVMPEKIVSLYNLGNMYSSSLQVIDGIEPGQYCDYAVADYGGAAGPGTGMTLKQCAGMSIELRRGSGNSSESTARSRKEAGYGYYMFFALDPSLYGSQVYRCQSVCKGLYDETLVYPSYYYKKNSTEREAIN
# Columns and labels:
# Assay in all cases: glycan array binding signal (z-score within array); higher = stronger binding
# Conditions in all cases: glycan notation: IUPAC condensed, linker removed
# [1] = target: Neu5Ac(a2-6)Gal(b1-4)GlcNAc(b1-2)Man(a1-3)[GlcNAc(b1-4)][Neu5Ac(a2-6)Gal(b1-4)GlcNAc(b1-2)Man(a1-6)]Man(b1-4)GlcNAc(b1-4)GlcNAc
# Summary of the method: (§1)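 Columns mapping to the same glycan were averaged after glycan names were converted to IUPAC-condensed notation. The data come from 3228 arrays in the Consortium for Functional Glycomics database, limited to those with an available protein sequence. Binding is reported as a within-array Z-score averaged across arrays of one protein sequence and across linkers.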
# [2] = target: Neu5Ac(a2-6)Gal(b1-4)GlcNAc(b1-2)Man(a1-3)[Man(a1-6)]Man(b1-4)GlcNAc(b1-4)GlcNAc
# Summary of the method: as §1
# [3] = target: Neu5Ac(a2-6)Gal(b1-4)GlcNAc(b1-2)Man(a1-3)[Neu5Ac(a2-3)Gal(b1-4)GlcNAc(b1-2)Man(a1-6)]Man(b1-4)GlcNAc(b1-4)GlcNAc
# Summary of the method: as §1
# [4] = target: Neu5Ac(a2-6)Gal(b1-4)GlcNAc(b1-2)Man(a1-3)[Neu5Ac(a2-6)Gal(b1-4)GlcNAc(b1-2)Man(a1-6)]Man(b1-4)GlcNAc(b1-4)GlcNAc
# Summary of the method: as §1
# [5] = target: Neu5Ac(a2-6)Gal(b1-4)GlcNAc(b1-2)Man(a1-3)[Neu5Ac(a2-6)Gal(b1-4)GlcNAc(b1-2)Man(a1-6)]Man(b1-4)GlcNAc(b1-4)[Fuc(a1-6)]GlcNAc
# Summary of the method: as §1
# [6] = target: Neu5Ac(a2-6)Gal(b1-4)GlcNAc(b1-2)Man(a1-6)Man(b1-4)GlcNAc(b1-4)GlcNAc
# Summary of the method: as §1
# [7] = target: Neu5Ac(a2-6)Gal(b1-4)GlcNAc(b1-2)Man(a1-6)[Gal(b1-4)GlcNAc(b1-2)Man(a1-3)]Man(b1-4)GlcNAc(b1-4)GlcNAc
# Summary of the method: as §1
# [8] = target: Neu5Ac(a2-6)Gal(b1-4)GlcNAc(b1-2)Man(a1-6)[GlcNAc(b1-2)Man(a1-3)]Man(b1-4)GlcNAc(b1-4)GlcNAc
# Summary of the method: as §1
# [9] = target: Neu5Ac(a2-6)Gal(b1-4)GlcNAc(b1-2)Man(a1-6)[Man(a1-3)]Man(b1-4)GlcNAc(b1-4)GlcNAc
# Summary of the method: as §1
# [10] = target: Neu5Ac(a2-6)Gal(b1-4)GlcNAc(b1-2)[Neu5Ac(a2-6)Gal(b1-4)GlcNAc(b1-4)]Man(a1-3)[GlcNAc(b1-4)][Neu5Ac(a2-6)Gal(b1-4)GlcNAc(b1-2)[Neu5Ac(a2-6)Gal(b1-4)GlcNAc(b1-6)]Man(a1-6)]Man(b1-4)GlcNAc(b1-4)GlcNAc
# Summary of the method: as §1
# [11] = target: Neu5Ac(a2-6)Gal(b1-4)GlcNAc(b1-2)[Neu5Ac(a2-6)Gal(b1-4)GlcNAc(b1-4)]Man(a1-3)[GlcNAc(b1-4)][Neu5Ac(a2-6)Gal(b1-4)GlcNAc(b1-4)Man(a1-6)]Man(b1-4)GlcNAc(b1-4)GlcNAc
# Summary of the method: as §1
# [12] = target: Neu5Ac(a2-6)Gal(b1-4)GlcNAc(b1-2)[Neu5Ac(a2-6)Gal(b1-4)GlcNAc(b1-6)]Man(a1-6)[Neu5Ac(a2-6)Gal(b1-4)GlcNAc(b1-2)Man(a1-3)][GlcNAc(b1-4)]Man(b1-4)GlcNAc(b1-4)GlcNAc
# Summary of the method: as §1
# [13] = target: Neu5Ac(a2-6)Gal(b1-4)GlcNAc(b1-3)Gal(b1-3)GlcNAc
# Summary of the method: as §1
# [14] = target: Neu5Ac(a2-6)Gal(b1-4)GlcNAc(b1-3)Gal(b1-4)GlcNAc
# Summary of the method: as §1
# [15] = target: Neu5Ac(a2-6)Gal(b1-4)GlcNAc(b1-3)Gal(b1-4)GlcNAc(b1-2)Man(a1-3)[Neu5Ac(a2-6)Gal(b1-4)GlcNAc(b1-3)Gal(b1-4)GlcNAc(b1-2)Man(a1-6)]GalNAc
# Summary of the method: as §1
# [16] = target: Neu5Ac(a2-6)Gal(b1-4)GlcNAc(b1-3)Gal(b1-4)GlcNAc(b1-3)Gal(b1-4)GlcNAc
# Summary of the method: as §1
# [17] = target: Neu5Ac(a2-6)Gal(b1-4)GlcNAc(b1-3)Gal(b1-4)GlcNAc(b1-3)Gal(b1-4)GlcNAc(b1-2)Man(a1-3)[Neu5Ac(a2-6)Gal(b1-4)GlcNAc(b1-3)Gal(b1-4)GlcNAc(b1-3)Gal(b1-4)GlcNAc(b1-2)Man(a1-6)]GalNAc
# Summary of the method: as §1
# [18] = target: Neu5Ac(a2-6)Gal(b1-4)GlcNAc(b1-3)Gal(b1-4)GlcNAc(b1-3)GalNAc
# Summary of the method: as §1
# [19] = target: Neu5Ac(a2-6)Gal(b1-4)GlcNAc(b1-3)Gal(b1-4)GlcNAc(b1-3)[Neu5Ac(a2-6)Gal(b1-4)GlcNAc(b1-3)Gal(b1-4)GlcNAc(b1-6)]GalNAc
# Summary of the method: as §1
# [20] = target: Neu5Ac(a2-6)Gal(b1-4)GlcNAc(b1-3)Gal(b1-4)GlcNAc(b1-6)[Gal(b1-3)]GalNAc
# Summary of the method: as §1
# [21] = target: Neu5Ac(a2-6)Gal(b1-4)GlcNAc(b1-3)Gal(b1-4)[Fuc(a1-3)]GlcNAc(b1-3)Gal(b1-4)[Fuc(a1-3)]GlcNAc
# Summary of the method: as §1
# [22] = target: Neu5Ac(a2-6)Gal(b1-4)GlcNAc(b1-3)GalNAc
# Summary of the method: as §1
# [23] = target: Neu5Ac(a2-6)Gal(b1-4)GlcNAc(b1-3)[Neu5Ac(a2-6)Gal(b1-4)GlcNAc(b1-6)]GalNAc
# Summary of the method: as §1
# [24] = target: Neu5Ac(a2-6)Gal(b1-4)GlcNAc(b1-6)GalNAc
# Summary of the method: as §1
# [25] = target: Neu5Ac(a2-6)Gal(b1-4)GlcNAc(b1-6)[Gal(b1-3)GlcNAc(b1-3)]Gal(b1-4)Glc
# Summary of the method: as §1
# [26] = target: Neu5Ac(a2-6)Gal(b1-4)GlcNAc(b1-6)[Gal(b1-3)]GalNAc
# Summary of the method: as §1
# [27] = target: Neu5Ac(a2-6)Gal(b1-4)GlcNAc6S
# Summary of the method: as §1
# Neu5Ac(a2-6)GalNAc = target: Neu5Ac(a2-6)GalNAc
# Summary of the method: as §1
# [28] = target: Neu5Ac(a2-6)GalNAc(b1-4)GlcNAc
# Summary of the method: as §1
# [29] = target: Neu5Ac(a2-6)GalNAc(b1-4)GlcNAc6S
# Summary of the method: as §1
# [30] = target: Neu5Ac(a2-6)GlcNAc(b1-4)GlcNAc
# Summary of the method: as §1
binder,measurement,setting,value
B1,glycan array binding signal (z-score),[1],-0.144
same,glycan array binding signal (z-score),[2],-0.56
same,glycan array binding signal (z-score),[3],0.227
same,glycan array binding signal (z-score),[4],-0.081
same,glycan array binding signal (z-score),[5],0.132
same,glycan array binding signal (z-score),[6],-0.494
same,glycan array binding signal (z-score),[7],-0.247
same,glycan array binding signal (z-score),[8],-0.007
same,glycan array binding signal (z-score),[9],-0.485
same,glycan array binding signal (z-score),[10],-0.005
same,glycan array binding signal (z-score),[11],0.138
same,glycan array binding signal (z-score),[12],0.144
same,glycan array binding signal (z-score),[13],-0.218
same,glycan array binding signal (z-score),[14],-0.15
same,glycan array binding signal (z-score),[15],0.926
same,glycan array binding signal (z-score),[16],-0.225
same,glycan array binding signal (z-score),[17],0.91
same,glycan array binding signal (z-score),[18],-0.058
same,glycan array binding signal (z-score),[19],1.36
same,glycan array binding signal (z-score),[20],-0.063
same,glycan array binding signal (z-score),[21],0.069
same,glycan array binding signal (z-score),[22],-0.034
same,glycan array binding signal (z-score),[23],1.34
same,glycan array binding signal (z-score),[24],0.178
same,glycan array binding signal (z-score),[25],-0.321
same,glycan array binding signal (z-score),[26],-0.15
same,glycan array binding signal (z-score),[27],-0.154
same,glycan array binding signal (z-score),Neu5Ac(a2-6)GalNAc,-0.18
same,glycan array binding signal (z-score),[28],0.101
same,glycan array binding signal (z-score),[29],-0.06
same,glycan array binding signal (z-score),[30],-0.371
